# Hit rate of the full screen: of about 310,000 compounds, about 14,000 (4.5%) showed an effect of 50% or more. The effect is printed as a negative number. Some of the results follow.
# Biological target: human ether-à-go-go-related gene (hERG) potassium channel (human, UniProt Q12809)
# Assay: primary screen, population patch clamp on CHO cells stably expressing hERG
# 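Further: peak tail current of the secondary pulse compared with the same well before compound.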
# Sequence of human ether-à-go-go-related gene (hERG) potassium channel (Q12809 whole entry, looked up): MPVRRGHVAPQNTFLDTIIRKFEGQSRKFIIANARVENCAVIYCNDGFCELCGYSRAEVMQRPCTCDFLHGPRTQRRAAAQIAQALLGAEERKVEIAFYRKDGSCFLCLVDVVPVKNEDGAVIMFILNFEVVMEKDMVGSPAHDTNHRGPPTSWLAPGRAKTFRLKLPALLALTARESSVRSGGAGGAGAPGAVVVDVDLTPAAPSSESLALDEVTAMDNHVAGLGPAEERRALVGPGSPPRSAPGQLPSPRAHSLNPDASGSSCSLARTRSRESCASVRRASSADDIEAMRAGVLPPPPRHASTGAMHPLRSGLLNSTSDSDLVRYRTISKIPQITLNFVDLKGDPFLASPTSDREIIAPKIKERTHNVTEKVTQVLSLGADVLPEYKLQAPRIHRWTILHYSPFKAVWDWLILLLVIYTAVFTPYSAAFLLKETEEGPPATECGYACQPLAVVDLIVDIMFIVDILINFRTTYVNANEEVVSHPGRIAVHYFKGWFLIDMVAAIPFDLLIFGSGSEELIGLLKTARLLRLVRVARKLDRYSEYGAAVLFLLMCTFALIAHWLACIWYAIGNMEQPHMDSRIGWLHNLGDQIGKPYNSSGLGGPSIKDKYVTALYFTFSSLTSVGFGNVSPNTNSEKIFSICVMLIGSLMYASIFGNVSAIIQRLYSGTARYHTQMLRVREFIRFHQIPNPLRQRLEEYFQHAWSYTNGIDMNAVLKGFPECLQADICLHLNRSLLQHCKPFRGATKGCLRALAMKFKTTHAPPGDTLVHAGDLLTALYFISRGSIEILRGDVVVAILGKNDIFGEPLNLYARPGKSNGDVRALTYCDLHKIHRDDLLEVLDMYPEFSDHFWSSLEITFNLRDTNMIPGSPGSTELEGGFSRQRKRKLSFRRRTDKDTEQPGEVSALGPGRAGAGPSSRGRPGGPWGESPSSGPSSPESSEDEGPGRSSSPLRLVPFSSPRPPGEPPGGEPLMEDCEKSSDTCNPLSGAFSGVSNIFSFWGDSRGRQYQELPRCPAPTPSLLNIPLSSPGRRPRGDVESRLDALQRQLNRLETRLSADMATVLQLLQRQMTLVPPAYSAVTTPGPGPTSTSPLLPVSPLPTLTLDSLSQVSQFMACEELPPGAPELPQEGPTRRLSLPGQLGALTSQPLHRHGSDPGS
row,SMILES,"hERG current change (%, negative = inhibition) at 10uM [%]"
1,Cc1nnc(NCc2ccncc2)c2ccccc12,-8.54
2,O=C(COc1ccc2ccccc2c1)N1CCN(CC2CC3C=CC2C3)CC1.O=C(O)C(=O)O (stereo not drawn),-5.01
3,Cc1cc2c(cc1S(=O)(=O)Nc1ccc(F)cc1)n(C)c(=O)c(=O)n2C,-6.7
4,Cc1ccc2c(c1)N(CC(=O)N1CCc3ccccc3C1)C(=O)CO2,-0.485
5,Clc1ccc(-c2nc3ccccc3n2OCc2ccccc2)cc1,-6.06
6,CS(=O)(=O)Nc1ccccc1C(=O)N1CCOCC1,16.4
7,COc1ccc(CNC(=O)c2c[nH]c3ccccc3c2=O)cc1,10.2
8,CC(C)CCNC(=O)c1cc2c(s1)-c1ccccc1S(=O)(=O)C2,-3.55
9,C=CCn1c(SCC(=O)NC2CCCCC2)nnc1-c1ccccn1,-4.21
10,CCOC(=O)N1[C@@H]2C=C(C)[C@@H]2[C@@H]2[C@@H](C)C(=O)N21,-0.711
11,O=C(NNc1cc(Cl)ccc1Cl)c1c(F)cccc1Cl,-4.5
12,Cc1ccc(S(=O)(=O)/N=C(/Nc2ccc([N+](=O)[O-])cc2)c2ccccc2)cc1,12.2
13,Cc1ccccc1C(=O)NN1CC(C(=O)OCc2ccc(Cl)c(Cl)c2)CC1=O (stereo not drawn),-31.6
14,O=C(NCC1CCCO1)C1CCCN(S(=O)(=O)c2cccc(C(F)(F)F)c2)C1 (stereo not drawn),4.31
15,CC1Sc2ccc(S(=O)(=O)N3CCC(C(=O)NCc4ccco4)CC3)cc2NC1=O (stereo not drawn),-16.2
16,COCc1cc(=O)n2[nH]cc(-c3ccccc3)c2n1,9.45
17,O=C(NCC1CC1)C1(S(=O)(=O)c2ccccc2)CC=CC1,11
18,CCCCCC(O)CCc1n[nH]c(=S)n1-c1ccccc1 (stereo not drawn),16.6
19,CC(C)CN(C(=O)COC(=O)CSc1ccccc1)c1c(N)n(Cc2ccccc2)c(=O)[nH]c1=O,11.3
20,O=C1N=C(N2CCOCC2)S/C1=C/c1cc2c(cc1[N+](=O)[O-])OCO2,8.71
21,Cc1sc2ncnc(N3CCC(C(=O)NNC(=O)COc4ccccc4F)CC3)c2c1C,-57
22,Cc1nc(C(=O)NCCC(C)C)sc1C1(C)CC(c2ccccc2)=NO1 (stereo not drawn),-9.61
23,COc1ccc(Nc2nc(N3CCOCC3)nc(N3CCOCC3)n2)c(OC)c1,8.58
24,Cc1ccc(N2C(=O)CC(SCC(=O)Nc3ccc(S(N)(=O)=O)cc3)C2=O)cc1 (stereo not drawn),17.5
